Source: PubChem BioAssay AID1240 (Sanford-Burnham Center for Chemical Genomics, 2008)
The campaign covered roughly 50,000 compounds. About 800 (1.6%) showed an effect of 50% or more. The list shows a part of the results.

Molecular target: Bcl-2-like protein 10 (Homo sapiens) (UniProt Q9HD36)
Assay: Phenotype converters, Bcl-B/TR3 peptide binding displacement, primary biochemical FP (AID 1240);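 also: 0% = Bcl-B with tracer peptide and DMSO and 100% = tracer peptide lacking Bcl-B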
Conditions: GST-Bcl-B / FITC-TR3 peptide fluorescence polarization; stronger effect = higher value; compound at 3.75 mg/L

Chain of UniProt Q9HD36 (Q9HD36 whole entry, looked up): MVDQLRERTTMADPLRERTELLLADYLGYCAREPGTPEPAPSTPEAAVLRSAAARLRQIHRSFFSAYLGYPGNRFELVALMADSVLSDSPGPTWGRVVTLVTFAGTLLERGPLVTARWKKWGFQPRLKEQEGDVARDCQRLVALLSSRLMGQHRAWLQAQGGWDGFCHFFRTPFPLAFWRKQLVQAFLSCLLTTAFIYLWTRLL

SMILES	displacement
Cc1c(NS(=O)(=O)c2cc(Cl)ccc2Cl)cccc1[N+](=O)[O-]	-0.1%
CC(C)c1ccccc1NC(=O)CCN1C(=O)c2ccccc2C1=O	-6%
COc1ccccc1/C=N/NC(=O)c1cc(-c2ccc3ccccc3c2)n[nH]1	-13.4%
CCOC(=O)c1c(N)n(-c2ccc(OC)cc2)c2nc3ccccc3nc12	12%
CCC1CCCCN1CCCOc1ccc(Br)cc1 (stereo not given)	-1.6%
O=C(Cc1ccc([N+](=O)[O-])cc1)N1N=C(c2cccnc2)CC1(O)C(F)(F)F (stereo not given)	-3.2%
NC(=O)c1cc(NC(=O)c2cccs2)cc(C(N)=O)c1	-4.3%
Cc1ccc(/C=C2\SC(=S)N(CC(C)C)C2=O)o1	36.3%
COc1cc(NC(=O)c2cc(-c3cccs3)nc3ccccc23)c(OC)cc1Cl	55.2%
CC(=O)N1C(=O)/C(=C2/SC(=Nc3ccc(Br)cc3)NC2=O)c2ccccc21	21.1%
Cc1cccc(NC(=O)C2CCCN2C(=O)OC(C)(C)C)c1 (stereo not given)	3.5%
Cc1nc2ccccc2n1CCOc1ccc(F)cc1	-3.3%
O=C(O)CN1C(=O)/C(=C2\SC(=S)N(C(Cc3ccccc3)C(=O)O)C2=O)c2ccccc21 (stereo not given)	10.2%
O=C(CSc1nnnn1-c1ccccc1)Nc1ccc([N+](=O)[O-])cc1	0.6%
Brc1ccc(CN2CCN(C3CCCCC3)CC2)cc1	-6.2%
C=CCc1cccc(/C=N/NC(=O)c2cccc(N3CCCC3=O)c2)c1O	-1.8%
CC(=O)c1c(C)[nH]c(C(=O)OCc2ccccc2)c1C	-0.2%
CC(C)Nc1nc(-c2cccnc2)nc2ccccc12	20.9%
CC1=C(C(=O)OC2CCCCC2)C(c2ccc(N(C)C)cc2)NC(=O)N1 (stereo not given)	99.1%
CC(C)COc1ccc(/C=C2\SC(=S)NC2=O)c2ccccc12	37.1%
Cc1nc2cc(Nc3nnc(-c4ccccc4)c4ccccc34)ccc2n1C	11.6%
COCCCNC(=O)CN(c1ccc(OC)c(Cl)c1)S(C)(=O)=O	-0.1%
COC(=O)c1c(C)oc2ccc(OC(=O)c3ccccc3)cc12	11.7%
O=C(/C=C/c1ccc([N+](=O)[O-])cc1)c1ccc(OC(F)F)cc1	9.7%
Cc1ccc(S(=O)(=O)/N=C(/CSC(N)=O)Nc2ccccc2)cc1	16.6%
CCOc1ccc(N(CC(=O)Nc2ccccc2C(F)(F)F)S(C)(=O)=O)cc1	-2.1%
CC(=O)CC(=O)Nc1ccc(Nc2ccccc2)cc1	-2.9%
COc1ccccc1N(C=NC#N)CC#N	-6.4%

SMILES	displacement
CC1=NN(C(=O)c2ccccc2Cl)C(O)(c2ccc(Cl)cc2)C1 (stereo not given)	-16.6%
CCC(C)c1ccc(NC(=O)c2c(-c3c(Cl)cccc3Cl)noc2C)cc1 (stereo not given)	4.5%
CC1=NNC(=O)C1CC(=O)N/N=C/c1ccccc1O (stereo not given)	-17.4%
Cn1c(=O)cc2c3c(c(N)ccc31)C(=O)c1ccccc1-2	139%
O=C(CCCOc1ccccc1)NCc1ccco1	-5.7%
CCOC(=O)C(=CNc1cc(Cl)c(Cl)cc1Cl)C(=O)OCC	-3.2%
c1ccc2c(c1)ncn2CCn1cnc2ccccc21	-4.6%
COc1ccc2nc(SCC(=O)Nc3ccc(Cl)c(Cl)c3)[nH]c2c1	-2.7%
Cc1cc(C)nc(N/N=C/c2cc3c(cc2[N+](=O)[O-])OCO3)n1	7.8%
O=C(Nc1nc2ccccc2n1CCOc1ccccc1)c1ccc(F)cc1	-12.2%
COc1cccc(Nc2ccccc2C)c1	-9.3%
O=C1NC(=O)N(c2ccc(Br)cc2)C(=O)/C1=C\c1ccc(-c2ccccc2[N+](=O)[O-])o1	14.5%
O=[N+]([O-])c1cccc(Cl)c1N1CCN(S(=O)(=O)c2ccccc2)CC1	5.1%
CCCCSCc1nc2c(c(=O)[nH]1)C1(CCCC1)Cc1ccccc1-2	0.3%
c1ccc(-c2nc(-c3cccnc3)no2)cc1	-3.9%
Cc1ccccc1OCC(=O)NCc1ccncc1	1.2%
O=S(=O)(Nc1ccc2oc(-c3cc(Br)ccc3Cl)nc2c1)c1ccccc1	5%
Clc1ccc(OCCSc2nnnn2-c2ccccc2)cc1	5.2%
COC(=O)c1ccccc1-c1ccc(/C=C2/SC(=S)N(CC(=O)O)C2=O)o1	5.3%
N/C(=N\OS(=O)(=O)c1ccc([N+](=O)[O-])cc1)c1ccncc1	-0.6%
O/N=C\c1ccc2c(c1)OCCOCCOc1cc(/C=N/O)ccc1OCCOCCO2	-1.8%
O=[N+]([O-])c1cccc(S(=O)(=O)Nc2ccc(O)c(Cl)c2)c1	11.6%
CC(C)c1ccc(N(CC(=O)NC(C)c2ccccc2)S(=O)(=O)c2ccccc2)cc1 (stereo not given)	5.9%
CS(=O)(=O)N(Cc1ccc(Cl)cc1)c1ccc(C(=O)Nc2cccc(C(F)(F)F)c2)cc1	10.7%
Oc1c(C=Nc2cccc(Br)c2)sc2ccccc12	-3.9%
COc1ccc(C2CC(=O)C3=C(C2)Nc2ccccc2NC3c2cccc(Br)c2)cc1 (stereo not given)	4.5%
CCCCOC(=O)c1cccc(NC(=O)c2c(-c3ccccc3Cl)noc2C)c1	-4.6%
